{"source": "PubChem BioAssay AID1476", "about": "(National Center for Advancing Translational Sciences (NCATS), 2009)", "note": "The campaign covered roughly 200,000 compounds. About 4,500 (2.2%) were called active. Inconclusive means that the source gave no clear call. Such entries were picked first, then a sample of the others. Calls come from the whole dose curve; as a rule, active = well fitted inhibition curve with a large enough effect; inconclusive = small, poorly fitted or top-dose-only effect, or effect the other way; inactive = flat fitted curve, though single readings scatter. Potencies of inconclusive entries are doubtful fits and often do not repeat. Potency is the fitted concentration of half-maximal effect; tags give direction and shape of the fitted curve."}
{"biological_target": "Cruzipain (Trypanosoma cruzi) (UniProt P25779)", "sequence (P25779 whole entry, looked up)": "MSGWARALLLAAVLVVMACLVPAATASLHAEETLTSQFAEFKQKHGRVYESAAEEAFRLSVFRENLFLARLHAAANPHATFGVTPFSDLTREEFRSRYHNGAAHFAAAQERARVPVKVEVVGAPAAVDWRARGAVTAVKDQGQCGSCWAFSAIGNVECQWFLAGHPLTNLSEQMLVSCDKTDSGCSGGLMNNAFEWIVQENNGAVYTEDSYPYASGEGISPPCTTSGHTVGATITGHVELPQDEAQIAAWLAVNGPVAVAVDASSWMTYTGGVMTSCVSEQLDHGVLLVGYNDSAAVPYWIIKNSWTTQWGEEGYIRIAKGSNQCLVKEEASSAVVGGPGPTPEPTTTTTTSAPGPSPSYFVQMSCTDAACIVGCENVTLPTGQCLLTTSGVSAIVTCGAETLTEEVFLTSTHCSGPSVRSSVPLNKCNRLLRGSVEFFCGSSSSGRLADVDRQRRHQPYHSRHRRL", "assay": "qHTS Assay for Promiscuous and Specific Inhibitors of Cruzain (without detergent); note: nearly all actives have a fitted effect of over 40% in size;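 for max response, negative = inhibition: plate controls were enzyme without inhibitor for no effect and buffer without enzyme for full effect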", "settings": "purified cruzain, Z-FR-AMC fluorescence, no detergent", "method_in_brief": "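Purified cruzain at 1.5 nM, pre-incubated 15 min with compound at room temperature in 100 mM sodium acetate pH 5.5, 5 mM DTT, 0.00005% Triton X-100. Reaction started with 2 uM Z-FR-AMC; AMC fluorescence increase over 60 s gives rate.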"}
{"smiles": "C/C(=N\\N=C(/N)SC1CC(=O)N(c2ccc(Br)cc2)C1=O)c1cccs1", "note": "(stereo not drawn)", "Potency": "inconclusive: 31.6 µM [inhibitor, single point]"}
{"smiles": "CCOc1ccc(Br)cc1C(=O)Nc1ccc(C(=O)NCC(C)C)cc1", "Potency": "inconclusive: 39.8 µM [inhibitor, single point]"}
{"smiles": "CCOC(=O)N1CCN(C(=O)CN(c2ccc(Oc3ccccc3)cc2)S(C)(=O)=O)CC1", "Potency": "inconclusive: 31.6 µM [activator, single point]"}
{"smiles": "Cc1cccc(OCC(=O)Nc2nc3ccc([N+](=O)[O-])cc3s2)c1", "Potency": "inconclusive: 39.8 µM [inhibitor, single point]"}
{"smiles": "COC(=O)[C@@]1(Cc2ccccc2)[C@H]2c3cc(C(=O)N4CCCC4)n(Cc4cccc5ccccc45)c3C[C@H]2CN1C(=O)c1ccccc1", "max response, negative = inhibition": "inactive: -0.138%"}
{"smiles": "CCN1CCN(C(c2ccc(SC)cc2)c2c(O)cc(C)n(CCOC)c2=O)CC1", "note": "(stereo not drawn)", "Potency": "inconclusive: 39.8 µM [activator, single point]"}
{"smiles": "CCOc1ccccc1NC(=O)Nc1cc(OC)ccc1OC", "Potency": "inconclusive: 39.8 µM [inhibitor, single point]"}
{"smiles": "CN(C)c1ccc(-c2noc(C3CCN(S(=O)(=O)c4cccc(C(=O)O)c4)CC3)n2)cc1", "Potency": "inconclusive: 5.01 µM [activator, single point]"}
{"smiles": "COc1ccccc1NC(=O)C1=C(C)Nc2c(C(=O)Nc3cccc(C)c3)cnn2C1c1ccccc1Cl", "note": "(stereo not drawn)", "Potency": "active: 25.1 µM"}
{"smiles": "CC(C)C1=C[C@@]23CC[C@@H]4[C@](C)(CCC[C@@]4(C)C(=O)O)[C@@H]2C[C@@H]1[C@@H](C(=O)O)[C@@H]3C(=O)O", "max response, negative = inhibition": "inactive: 2.15%"}
{"smiles": "c1ccc2c(c1)CCN(c1nc3cc4c(cc3s1)OCCO4)C2", "Potency": "inconclusive: 31.6 µM [inhibitor, single point]"}
{"smiles": "COc1ccc(Cn2nnnc2C(c2ccccc2Cl)N2CCC(C(N)=O)CC2)cc1", "note": "(stereo not drawn)", "Potency": "inconclusive: 39.8 µM [activator, single point]"}
{"smiles": "COc1ccc(CCNC(=O)c2ccc(Cn3c(=O)c4ccccc4n(CC(=O)C(C)(C)C)c3=O)cc2)cc1OC", "Potency": "inconclusive: 31.6 µM [activator, single point]"}
{"smiles": "Cc1ccc(NC(=O)CC2Nc3ccccc3NC2=O)cc1C", "note": "(stereo not drawn)", "max response, negative = inhibition": "inactive: 0.0967%"}
{"smiles": "COc1cccc(-c2nnc3sc(-c4ccccc4)nn23)c1", "Potency": "inconclusive: 39.8 µM [activator, single point]"}
{"smiles": "CCCc1cc(=O)oc2cc(C)c3c(-c4ccccc4)coc3c12", "Potency": "inconclusive: 25.1 µM [inhibitor, single point]"}
{"smiles": "COC(=O)c1cc2c(ccn2-c2ccc(F)cc2)n1CC(=O)N1CCN(C(=O)c2ccco2)CC1", "Potency": "inconclusive: 39.8 µM [activator, single point]"}
{"smiles": "Cc1sc(-n2c(C)cc(C=C3C(=O)NC(=O)NC3=O)c2C)c(C#N)c1C", "Potency": "inconclusive: 39.8 µM [inhibitor, single point]"}
{"smiles": "CCCCCn1c(N2CCN(c3cccc(Cl)c3)CC2)nc2c1c(=O)[nH]c(=O)n2C", "Potency": "inconclusive: 31.6 µM [activator, single point]"}
{"smiles": "Cc1ccc(S(=O)(=O)C(CNC(=O)C(=O)NCCc2ccccc2)c2cccs2)cc1", "note": "(stereo not drawn)", "max response, negative = inhibition": "inactive: 17.2%"}
{"smiles": "COC(=O)C1=C(O)C(C(=O)OC)C(c2ccc(C)cc2)C(C#N)(C#N)C1c1ccc(C)cc1", "note": "(stereo not drawn)", "Potency": "inconclusive: 39.8 µM [inhibitor, single point]"}
{"smiles": "COc1ccccc1CNC(=O)CSc1ccc(C(=O)Nc2ccccc2OC)cc1[N+](=O)[O-]", "Potency": "inconclusive: 31.6 µM [inhibitor, single point]"}
{"smiles": "N#C/C(=C\\c1cn(Cc2ccccc2)c2ccccc12)C(=O)NCc1ccco1", "max response, negative = inhibition": "inactive: -12.9%"}
{"smiles": "Cc1ccc(NC(=O)/C=C\\C(=O)N(c2ccc(C(C)C)cc2)C(C(=O)NCc2ccco2)c2ccc(F)cc2)cc1", "note": "(stereo not drawn)", "max response, negative = inhibition": "inactive: 22.2%"}
{"smiles": "COc1ccc2c(Sc3ccc(C)cc3)c(C(=O)NC(C)C)[nH]c2c1", "Potency": "inconclusive: 31.6 µM [activator, single point]"}
{"smiles": "CC1CCCC(C)N1c1nnc(NC(=O)c2cc(-c3ccc(Br)cc3)on2)s1", "note": "(stereo not drawn)", "Potency": "inconclusive: 31.6 µM [inhibitor, single point]"}
{"smiles": "COc1ccc(CC(=O)NNC(=O)COc2ccc(Br)cc2C)cc1OC", "Potency": "inconclusive: 39.8 µM [activator, single point]"}
{"smiles": "COC(=O)c1cc(OC)c(OC)cc1NC(=O)c1ccccc1", "Potency": "inconclusive: 39.8 µM [activator, single point]"}
{"smiles": "COc1ccccc1-c1coc2cc(OC(=O)/C=C/c3ccccc3)ccc2c1=O", "Potency": "inconclusive: 39.8 µM [inhibitor, single point]"}
{"smiles": "CCN(CC)C(=O)C1CCN(S(=O)(=O)c2c(C)noc2/C=C/c2cccc(OC)c2)CC1", "Potency": "inconclusive: 31.6 µM [activator, single point]"}
{"smiles": "CCC1=C(OC(=O)N(CC)CC)N2C(=O)OC(=NCC(=O)OC)[C@]2(C)[C@H]2C1=CC[C@H]1C(=O)N(C)C(=O)[C@H]12", "Potency": "inconclusive: 39.8 µM [activator, single point]"}
{"smiles": "c1ccc(C2Oc3ccccc3C3CC(c4cccs4)=NN32)cc1", "note": "(stereo not drawn)", "max response, negative = inhibition": "inactive: -3.29%"}
{"smiles": "Cc1ccc(Cn2cnc3nc4c(cc3c2=O)CC(C)CC4)cc1", "note": "(stereo not drawn)", "max response, negative = inhibition": "inactive: -4.12%"}
{"smiles": "O=C(C1CCC1)N1CCc2cc(S(=O)(=O)Nc3ccc4c(c3)OCO4)ccc21", "Potency": "inconclusive: 31.6 µM [inhibitor, single point]"}
{"smiles": "CCCCCCCOC(=O)C1=C(C)Nc2ncnn2C1c1cccs1", "note": "(stereo not drawn)", "Potency": "inconclusive: 39.8 µM [inhibitor, single point]"}
{"smiles": "CCOc1ccc(CCNC(=O)c2nn(C)c3c2CSc2ccccc2-3)cc1", "max response, negative = inhibition": "inactive: -6.15%"}
{"smiles": "Cc1ccc(C(c2nnnn2C2CCCCC2)N2CCc3ccccc32)cc1", "note": "(stereo not drawn)", "Potency": "active: 25.1 µM"}
{"smiles": "COC1CC(O[C@H]2/C(C)=C/CC3CC(C[C@]4(CCC(C)C(C5CCCCC5)O4)O3)OC(=O)[C@H]3C=C(C)/C(=N/O)C4OC/C(=C\\C=C\\[C@@H]2C)[C@@]43O)OC(C)C1O", "note": "(stereo partly drawn)", "Potency": "inconclusive: 39.8 µM [activator, single point]"}
